# Data: the supplement of paper PMC6531468
# This is one part of the list. Values come from read counts of a selection and are noisy. Scores sum up all selected molecules that hold the word; the word was not tested alone.
# Tested on: IMP3 KH1-4
# Assay: 6-mer SELEX enrichment z-score vs GST control; IMP3 is the RNA-binding protein IGF2BP3; higher = more enriched by binding
# Conditions: construct: KH1-4 (164-579); SELEX round: R4
# Procedure: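 SELEX-seq with GST-tagged IMP3 KH1-4 (Pro164-Lys579) and an N40 RNA pool, round 4. 6-mer z-score of sequence-tag enrichment normalised to the corresponding GST SELEX round; RNA k-mers written as DNA (T for U).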
# IMP3 KH1-4, sequence (chain, as listed by the source): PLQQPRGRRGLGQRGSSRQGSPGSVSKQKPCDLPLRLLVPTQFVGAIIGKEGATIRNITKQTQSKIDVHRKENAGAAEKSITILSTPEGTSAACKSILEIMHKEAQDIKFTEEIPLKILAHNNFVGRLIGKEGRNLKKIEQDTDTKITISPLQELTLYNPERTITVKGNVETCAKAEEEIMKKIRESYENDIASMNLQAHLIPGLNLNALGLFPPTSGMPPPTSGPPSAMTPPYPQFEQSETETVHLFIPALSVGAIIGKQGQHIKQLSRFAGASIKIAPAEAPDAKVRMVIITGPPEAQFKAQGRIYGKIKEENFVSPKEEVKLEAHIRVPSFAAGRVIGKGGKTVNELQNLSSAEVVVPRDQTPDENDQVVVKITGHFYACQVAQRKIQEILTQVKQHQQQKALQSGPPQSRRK
row,Sequence,6-mer SELEX enrichment z-score
1,TTGTGC,-0.27
2,TGTAAA,0.212
3,CCATTC,0.765
4,AAGAGG,0.894
5,AGATTA,1.18
6,GCGTCT,-0.222
7,GCCGCG,-0.2
8,GCATGC,0.564
9,CTCAGT,-0.011
10,TTCCTA,0.521
11,AAAGCA,-0.675
12,TGATGG,0.815
13,AGTGAT,0.197
14,GTTACA,0.378
15,CTACCT,-0.988
16,CCTCAT,0.364
17,CAGTGA,0.361
18,ACAGCT,-0.023
19,AGTGGG,0.43
20,GACACT,0.272

row,Sequence,6-mer SELEX enrichment z-score
1,GACACG,-0.003
2,CCCGCC,-1
3,TTAAGG,0.227
4,CCCCCG,0.41
5,TGATCA,0.929
6,CTCATT,0.687
7,TCAAAA,-0.988
8,GCGGTG,0.084
9,CCGTCC,-0.272
10,AGTCTA,-0.219
11,GGGTTA,0.121
12,CGGTGT,-0.449
13,GCTTGC,-0.051
14,ACTAGG,0.194
15,TAACTG,0.473
16,TTGAGG,-0.006
17,GAAAAG,-0.406
18,CTGGCT,-0.047
19,GGTGAT,0.426
20,CGGACG,-1.18
